Here are results for one substance from article PMC4263322.

The chains behind the UniProt entries cited, without tags or fusion partners.
UniProt P06748: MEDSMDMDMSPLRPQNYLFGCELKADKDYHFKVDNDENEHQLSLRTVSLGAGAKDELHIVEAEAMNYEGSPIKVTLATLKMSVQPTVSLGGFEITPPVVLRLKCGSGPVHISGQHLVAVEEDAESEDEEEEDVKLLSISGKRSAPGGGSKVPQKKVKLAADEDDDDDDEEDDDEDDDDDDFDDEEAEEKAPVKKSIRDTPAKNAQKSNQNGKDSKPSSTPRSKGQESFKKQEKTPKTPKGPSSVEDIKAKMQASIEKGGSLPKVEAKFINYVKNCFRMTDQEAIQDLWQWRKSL

Test [1] concerns the target T1, DNA polymerase-η (polη) (human (endogenous in MRC5sv)) (UniProt Q9Y253).
T1 sequence: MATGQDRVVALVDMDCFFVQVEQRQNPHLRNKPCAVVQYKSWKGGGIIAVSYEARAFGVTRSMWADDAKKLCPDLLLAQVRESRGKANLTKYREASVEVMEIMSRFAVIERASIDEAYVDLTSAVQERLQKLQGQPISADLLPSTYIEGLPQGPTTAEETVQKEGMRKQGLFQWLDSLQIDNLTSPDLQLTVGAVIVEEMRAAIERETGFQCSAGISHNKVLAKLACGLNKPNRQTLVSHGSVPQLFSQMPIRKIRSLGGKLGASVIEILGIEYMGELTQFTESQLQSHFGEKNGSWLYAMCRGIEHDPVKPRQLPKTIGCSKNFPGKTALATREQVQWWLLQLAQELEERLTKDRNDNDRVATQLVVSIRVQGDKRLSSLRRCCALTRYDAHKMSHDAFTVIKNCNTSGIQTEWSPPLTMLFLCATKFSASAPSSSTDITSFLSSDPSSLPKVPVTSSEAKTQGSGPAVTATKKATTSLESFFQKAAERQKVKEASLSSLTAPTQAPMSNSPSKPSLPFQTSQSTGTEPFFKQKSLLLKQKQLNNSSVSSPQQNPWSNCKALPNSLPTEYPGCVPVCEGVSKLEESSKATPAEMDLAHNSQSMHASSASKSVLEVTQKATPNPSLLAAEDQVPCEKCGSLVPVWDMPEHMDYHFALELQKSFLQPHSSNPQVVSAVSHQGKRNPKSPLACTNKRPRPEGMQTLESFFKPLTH
Description: condition: only transiently after ultraviolet irradiation of the cells (10 J m^-2); proximity ligation; MRC5sv cells ultraviolet irradiated with 10 J m^-2 at time points before fixation; rabbit anti-polη and mouse anti-NPM1 with PLA probes.

The target of test [2] is T1, DNA polymerase-η (polη) (human (endogenous in MRC5sv)). As to the kind of experiment: proximity ligation; fixed, permeabilised unirradiated cells (MRC5sv; XPV cells complemented with POLH); rabbit anti-polη and mouse anti-NPM1 with PLA probes.
Test [3] has as its target T2, polη expressed ectopically in XPV cells complemented with the POLH gene (human) (UniProt Q9Y253).
T2 sequence: T1 sequence
The description is as above.

For test [4], the target named is T1, DNA polymerase-η (polη) (human (endogenous in MRC5sv)). As to the kind of experiment: condition: only transiently after ultraviolet irradiation of the cells (10 J m^-2); co-IP; endogenous proteins extracted from MRC5sv cells at different time points after ultraviolet irradiation with 10 J m^-2.
Test [5] shares this target. As to the kind of experiment: co-IP; endogenous proteins in extracts of unirradiated MRC5sv cells; IP with rabbit anti-polη (H300), blot for NPM1; Triton lysis buffer (20 mM Tris-Cl pH 7.5, 150 mM NaCl, 0.5 mM EDTA, 10% glycerol, 1% Triton X-100), final washes with lysis buffer that also contained 250 mM NaCl.

These are yes or no findings as the source states them, for the method shown. In cells and extracts the contact can be indirect. Some results given as binding are weak or reduced against the parent protein; the word gives no strength.

With “nucleophosmin (NPM1) (from UniProt P06748 1-294)”, the binding result in test [1] is recorded as “no binding”; in test [2] it was “binds”; in test [3], “binds”; in test [4] it was “no binding”; in test [5], “binds”.
